T1: human CEACAM5 expressed on human cancer cell lines (MKN-45, NCI-H441, SK-CO-1, SNU-16, LS174T) (human, UniProt P06731 35-685)
T1 sequence: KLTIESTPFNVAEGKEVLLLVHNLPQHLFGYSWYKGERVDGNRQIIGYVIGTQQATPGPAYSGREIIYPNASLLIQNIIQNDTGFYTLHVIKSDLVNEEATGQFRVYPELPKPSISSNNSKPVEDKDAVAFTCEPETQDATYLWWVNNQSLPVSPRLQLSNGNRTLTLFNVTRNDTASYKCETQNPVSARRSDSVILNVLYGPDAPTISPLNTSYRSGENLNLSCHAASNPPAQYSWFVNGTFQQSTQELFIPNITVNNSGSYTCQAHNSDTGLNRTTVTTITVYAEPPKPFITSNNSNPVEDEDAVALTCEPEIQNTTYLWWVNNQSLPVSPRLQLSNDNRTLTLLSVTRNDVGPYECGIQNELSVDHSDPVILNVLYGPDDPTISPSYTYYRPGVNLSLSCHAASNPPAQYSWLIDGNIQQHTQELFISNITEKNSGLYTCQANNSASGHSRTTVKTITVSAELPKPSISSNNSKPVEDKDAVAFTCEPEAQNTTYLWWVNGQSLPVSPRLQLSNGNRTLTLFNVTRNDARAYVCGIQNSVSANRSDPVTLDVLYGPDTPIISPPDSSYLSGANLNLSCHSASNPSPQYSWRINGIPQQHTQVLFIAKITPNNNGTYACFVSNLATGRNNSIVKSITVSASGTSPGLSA


Biological target: T1, human CEACAM5 expressed on human cancer …
Test: cell-based or functional assay

SPECIFICITY FACTOR (IC50 in CEACAM5-negative MDA-MB-231 divided by IC50 in MKN-45) [fold]	SPECIFICITY FACTOR (IC50 in CEACAM5-negative MDA-MB-231 divided by IC50 in SK-CO-1) [fold]	SPECIFICITY FACTOR (IC50 in CEACAM5-negative MDA-MB-231 divided by IC50 in SNU-16) [fold]	SPECIFICITY FACTOR (IC50 in MDA-MB-231, set to 100 nM, divided by IC50 in MKN-45) [fold]	SPECIFICITY FACTOR (IC50 in MDA-MB-231, set to 100 nM, divided by IC50 in SK-CO-1) [fold]	SPECIFICITY FACTOR (IC50 in MDA-MB-231, set to 100 nM, divided by IC50 in SNU-16) [fold]	Binder
158	710	195	–	–	–	ADC6-M (conjugate of mAb6-M with DL1) (antibody, human IgG1, kappa, DL1 by interchain cysteine conjugation; DL1 (maleimido b-glucuronide-exatecan) by interchain cysteine conjugation; DAR 8.14) heavy: EVQLQESGPGLVKPSQTLSLTCTVSDGSVSRGGYYLTWIRQHPGKGLEWIGYIYYSGSTYFNPSLRSRVTMSVDTSKNQFSLKLSSVTAADTAVYYCARGIAVAPFDYWGQGTLVTVSSASTKGPSVFPLAPSSKSTSGGTAALGCLVKDYFPEPVTVSWNSGALTSGVHTFPAVLQSSGLYSLSSVVTVPSSSLGTQTYICNVNHKPSNTKVDKRV[letters of human IgG1 Fc with changes left out] light: EIVLTQSPATLSVSPGERATLSCRTSQSVRSNLAWYQQKPGQAPRLLIYAASTRATGIPARFSGSGSGTEFTLTISSLQSEDFAVYYCQQYTNWPFTFGPGTKVDIKRTVAAPSVFIFPPSDEQLKSGTASVVCLLNNFYPREAKVQWKVDNALQSGNSQESVTEQDSKDSTYSLSSTLTLSKADYEKHKVYACEVTHQGLSSPVTKSFNRGEC
–	–	–	> 116	> 596	> 179	ADC7-M (conjugate of mAb7-M with DL1-M) (antibody, human IgG1, kappa, MTG tag GGTLQSPP at the C-terminus is a conjugation site for DL1-M; DL1-M (NH2-GGG-b-glucuronide-exatecan) coupled by microbial transglutaminase; DAR 3.87 for the whole antibody; residues carrying the drug not stated) heavy: EVQLQESGPGLVKPSQTLSLTCTVSDGSVSRGGYYLTWIRQHPGKGLEWIGYIYYSGSTYFNPSLRSRVTMSVDTSKNQFSLKLSSVTAADTAVYYCARGIAVAPFDYWGQGTLVTVSSASTKGPSVFPLAPSSKSTSGGTAALGCLVKDYFPEPVTVSWNSGALTSGVHTFPAVLQSSGLYSLSSVVTVPSSSLGTQTYICNVNHKPSNTKVDKRV[letters of human IgG1 Fc with changes left out] light: EIVLTQSPATLSVSPGERATLSCRTSQSVRSNLAWYQQKPGQAPRLLIYAASTRATGIPARFSGSGSGTEFTLTISSLQSEDFAVYYCQQYTNWPFTFGPGTKVDIKRTVAAPSVFIFPPSDEQLKSGTASVVCLLNNFYPREAKVQWKVDNALQSGNSQESVTEQDSKDSTYSLSSTLTLSKADYEKHKVYACEVTHQGLSSPVTKSFNRGECGGTLQSPP
